Laboratory results taken from publication PMC4336329 (PLoS ONE, 2015).
Hit rate of the full screen: of about 310,000 compounds, about 2,200 (0.71%) showed an effect of 50% or more. Effects have a minus sign here. The list shows a part of the results.

What follows are molecules tested against human ether-à-go-go-related gene (hERG) potassium channel (human, UniProt Q12809) (assay: primary screen, population patch clamp on CHO cells stably expressing hERG).
human ether-à-go-go-related gene (hERG) potassium channel, sequence (Q12809 whole entry, looked up): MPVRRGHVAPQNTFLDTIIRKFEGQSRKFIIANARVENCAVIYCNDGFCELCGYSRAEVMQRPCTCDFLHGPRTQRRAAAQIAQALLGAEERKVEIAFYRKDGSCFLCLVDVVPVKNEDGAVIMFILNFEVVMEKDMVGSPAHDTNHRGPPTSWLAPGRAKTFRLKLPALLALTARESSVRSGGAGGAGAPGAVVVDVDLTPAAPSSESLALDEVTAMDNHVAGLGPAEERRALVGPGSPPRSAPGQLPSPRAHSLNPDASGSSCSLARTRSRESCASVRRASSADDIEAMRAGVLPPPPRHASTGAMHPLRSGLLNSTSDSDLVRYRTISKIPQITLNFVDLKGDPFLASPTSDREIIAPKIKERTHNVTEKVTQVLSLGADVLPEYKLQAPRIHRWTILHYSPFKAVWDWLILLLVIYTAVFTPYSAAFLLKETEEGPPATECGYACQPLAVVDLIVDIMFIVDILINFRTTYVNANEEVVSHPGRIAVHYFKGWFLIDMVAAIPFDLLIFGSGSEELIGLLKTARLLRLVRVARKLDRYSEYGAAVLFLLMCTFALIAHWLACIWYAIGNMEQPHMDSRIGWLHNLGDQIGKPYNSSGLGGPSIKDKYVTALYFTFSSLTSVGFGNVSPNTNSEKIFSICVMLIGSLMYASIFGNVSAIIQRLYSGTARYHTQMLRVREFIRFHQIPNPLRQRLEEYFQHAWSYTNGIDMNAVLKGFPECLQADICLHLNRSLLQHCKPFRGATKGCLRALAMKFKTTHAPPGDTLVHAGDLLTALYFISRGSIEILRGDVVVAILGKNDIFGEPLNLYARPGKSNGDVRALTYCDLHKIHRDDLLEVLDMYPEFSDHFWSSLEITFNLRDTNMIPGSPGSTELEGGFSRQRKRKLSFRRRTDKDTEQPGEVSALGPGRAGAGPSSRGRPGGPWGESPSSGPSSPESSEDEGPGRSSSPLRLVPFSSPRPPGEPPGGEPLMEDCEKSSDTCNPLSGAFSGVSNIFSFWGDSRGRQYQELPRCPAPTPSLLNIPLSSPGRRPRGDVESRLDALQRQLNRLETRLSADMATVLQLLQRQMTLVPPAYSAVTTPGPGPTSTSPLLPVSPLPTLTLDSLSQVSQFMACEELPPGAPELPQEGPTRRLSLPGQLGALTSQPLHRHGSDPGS

| Compound | hERG current change (%, negative = inhibition) at 1uM [%] |
| --- | --- |
| COc1ccc(CCNc2nc3ccc(C)cc3n3cnnc23)cc1OC | 8.38 |
| O=C(Nc1ncc2c(n1)-c1ccccc1CC2)c1cccc(Cl)c1 | 5.84 |
| CC(C)(C)NC(=O)CSc1nnc(-c2ccncc2)o1 | 3.34 |
| Cc1cc(NC(=O)CSc2nnc(-c3cccnc3)n2N)no1 | 6.86 |
| Cc1ccc(-c2nn(-c3ccccc3)cc2CN(Cc2ccccc2)C(=O)CCC(=O)O)o1 | 11.4 |
| Cc1cc(C(=O)N/N=C/c2cc(Br)ccc2OC(=O)c2ccc(Br)cc2)n[nH]1 | 4.08 |
| CC(C)Nc1ncnc2ccc(Br)cc12 | 12.6 |
| O=C(CCCc1c[nH]c2ccccc12)N1CCN(S(=O)(=O)c2cccs2)CC1 | -1.01 |
| Cc1ccccc1OCC(O)CN(CCO)Cc1ccccc1.Cl (centres unmarked) | -7.48 |
| NC(=O)CSc1nnc(COc2cccc3ccccc23)o1 | 7.91 |
| CCNc1oc(-c2ccc(OC)cc2)nc1S(=O)(=O)c1ccc(Br)cc1 | 1.36 |
| CCOC(=O)CCn1cc(F)c(=O)n(Cc2ccccc2)c1=O | 8.36 |
| CC(=O)N/C(=C\c1ccccc1)C(=O)OCC(=O)N(CC(C)C)c1c(N)n(Cc2ccccc2)c(=O)[nH]c1=O | 9.2 |
| CCc1c(C)c(C#N)c2[nH]c3ccccc3n2c1=S | 10.5 |
| COc1ccc(CCNC(=O)c2c(O)c3c([nH]c2=O)CCCC3)cc1OC | 5.09 |
| Cc1[nH]c(=S)n(CC2CCCO2)c1C (centres unmarked) | -19.5 |
| O=C(Nc1ccccc1)OCCNC(=O)c1ccccc1 | 3.96 |
| N=P(N1CCOCC1)(N1CCOCC1)C12CC3CC(CC(C3)C1)C2 | 15.7 |
| CCC1=NN(C(=O)c2ccc(C)cc2)C(O)(c2ccc(Br)cc2)C1 (centres unmarked) | 7.75 |

| Compound | hERG current change (%, negative = inhibition) at 1uM [%] |
| --- | --- |
| NC(=O)/C(N=Nc1ccccc1)=N/Nc1ccccc1 | 7.1 |
| CSCCC(N=C1NS(=O)(=O)c2ccccc21)C(=O)NCc1ccccc1F (centres unmarked) | 4.89 |
| CN(C)C(=O)CSc1ccccc1C(=O)OCC(=O)NC1CC1 | 2.26 |
| NC(=O)CCn1c(C(=O)c2ccc(Cl)cc2)c2ccccc2[n+]1[O-] | 6.92 |
| COc1ccc(OC)c(S(=O)(=O)Nc2ccccc2C(=O)O)c1 | 6.96 |
| CCS(=O)(=O)N1N=C(c2cccc(NS(C)(=O)=O)c2)CC1c1ccccc1 (centres unmarked) | -5.65 |
| Cc1cccc(/C=C/C(=O)c2cc(Br)ccc(=O)c2O)c1 | 21 |
| CN1CCN(c2oc(-c3cccs3)nc2S(=O)(=O)c2ccccc2)CC1 | -0.0938 |
| Cc1ccc(Sc2ccc([N+](=O)[O-])cc2[N+](=O)[O-])nc1 | 7.83 |
| CCOC(=O)c1c(S(=O)(=O)NCc2ccco2)c(C)n(C)c1C | 9.49 |
| Cc1cccc(C)c1NC(=S)N=Nc1c(O)n(C)c2ccc(S(=O)(=O)N3CCOCC3)cc12 | 18.5 |
| O=c1[nH]c(CSc2nnc3ccccn23)nc2ccccc12 | -6.33 |
| Cc1ccc(NC(=O)COC(=O)c2ccc([N+](=O)[O-])s2)c(C)c1 | 15.6 |
| CC1(c2ccc([N+](=O)[O-])cc2)NC(=O)N(CC(=O)Nc2ccc(N3CCCCC3)cc2)C1=O (centres unmarked) | 14.8 |
| C=CCn1c(C2CCCCC2)n[nH]c1=S | 11.6 |
| CCCc1cc(=O)oc2c3c(cc(OCC(=O)NCc4ccccn4)c12)OC(C)(C)CC3 | 8.03 |
| CC(C)(C)c1ccc(S(=O)(=O)N2CCC(NC(=O)c3ccco3)CC2)cc1 | 10.1 |
| Cc1ccc(-c2cccc(C3CC=CC4C3C(=O)N(Cc3ccccc3)C4c3ccc(C(F)(F)F)cc3)c2)cc1 (centres unmarked) | 18.2 |
| C=CCn1c(SCC(=O)NC)nc2sc3c(c2c1=O)CCC3 | -0.307 |

| Compound | hERG current change (%, negative = inhibition) at 1uM [%] |
| --- | --- |
| Cc1ccc(C(=O)Nc2cccc(C(=O)N/N=C/c3ccc(O)cc3)c2)cc1 | 19 |
| O=C(Nc1ccccc1)Nc1cccc(NC(=O)Nc2ccccc2)c1F | 10.5 |
| COc1ccc(/C=C/C(=O)NC(=S)Nc2ccccc2C(=O)NC2CCCCC2)cc1 | 10.4 |
| Cc1cc(C(=O)COc2cccnc2[N+](=O)[O-])c(C)n1-c1ccccc1F | 10.2 |
| CN(c1ccccc1)S(=O)(=O)c1cccc(NC(=O)CSc2nnc(N)s2)c1 | 16.7 |
| CN1CCN(c2ccc(S(=O)(=O)N3CCCCC3)cc2N)CC1.Cl | 5.18 |
| O=C(COC(=O)Cn1cnc2ccccc21)Nc1ccc2c(c1)OCCO2 | 12.4 |
| CCN(CC(=O)Nc1ccccc1OC)C(=O)c1ccc(N(C)S(=O)(=O)c2ccc(C)cc2)cc1 | -20.2 |
| CC(=O)NC1C2CN3CCN(C2)CC1(Cc1ccccc1)C3 (centres unmarked) | 11 |
| Cc1nc2cc(-n3ccc(=O)cc3)ccc2n1-c1ccccc1 | -4.93 |
| CCOc1ccc(N(Cc2ccccc2F)C2=NC3CS(=O)(=O)CC3S2)cc1 (centres unmarked) | 0.869 |
| CCOc1ccc(CCNC(=O)COC(=O)c2nn(C)c(=O)c3ccccc23)cc1OCC | 2.8 |
| Br.COc1cc(NS(=O)(=O)c2ccc(Nc3nc(-c4ccccn4)cs3)cc2)nc(OC)n1 | 12.7 |
| N/C(CSc1ncccc1C(F)(F)F)=N\O | 11 |
| COc1ccc(C2NCCc3[nH]cnc32)cc1 (centres unmarked) | 0.887 |
| C/C(=N\N1CCN(c2ccccc2)CC1)c1ccccc1O | 10.4 |
| CCc1ccc(NC2=NCC(c3ccccc3)S2)cc1 (centres unmarked) | 14.1 |
| O=C(c1cccc(C(F)(F)F)c1)c1c[nH]c(C(=O)NCCCN2CCOCC2)c1 | -8.13 |
